# Hit rate of the full screen: of about 310,000 compounds, about 2,200 (0.71%) showed an effect of 50% or more. The effect is printed as a negative number. Some of the results follow.
# Target: human ether-à-go-go-related gene (hERG) potassium channel (human, UniProt Q12809)
# Test: primary screen, population patch clamp on CHO cells stably expressing hERG
# Sequence of human ether-à-go-go-related gene (hERG) potassium channel (Q12809 whole entry, looked up): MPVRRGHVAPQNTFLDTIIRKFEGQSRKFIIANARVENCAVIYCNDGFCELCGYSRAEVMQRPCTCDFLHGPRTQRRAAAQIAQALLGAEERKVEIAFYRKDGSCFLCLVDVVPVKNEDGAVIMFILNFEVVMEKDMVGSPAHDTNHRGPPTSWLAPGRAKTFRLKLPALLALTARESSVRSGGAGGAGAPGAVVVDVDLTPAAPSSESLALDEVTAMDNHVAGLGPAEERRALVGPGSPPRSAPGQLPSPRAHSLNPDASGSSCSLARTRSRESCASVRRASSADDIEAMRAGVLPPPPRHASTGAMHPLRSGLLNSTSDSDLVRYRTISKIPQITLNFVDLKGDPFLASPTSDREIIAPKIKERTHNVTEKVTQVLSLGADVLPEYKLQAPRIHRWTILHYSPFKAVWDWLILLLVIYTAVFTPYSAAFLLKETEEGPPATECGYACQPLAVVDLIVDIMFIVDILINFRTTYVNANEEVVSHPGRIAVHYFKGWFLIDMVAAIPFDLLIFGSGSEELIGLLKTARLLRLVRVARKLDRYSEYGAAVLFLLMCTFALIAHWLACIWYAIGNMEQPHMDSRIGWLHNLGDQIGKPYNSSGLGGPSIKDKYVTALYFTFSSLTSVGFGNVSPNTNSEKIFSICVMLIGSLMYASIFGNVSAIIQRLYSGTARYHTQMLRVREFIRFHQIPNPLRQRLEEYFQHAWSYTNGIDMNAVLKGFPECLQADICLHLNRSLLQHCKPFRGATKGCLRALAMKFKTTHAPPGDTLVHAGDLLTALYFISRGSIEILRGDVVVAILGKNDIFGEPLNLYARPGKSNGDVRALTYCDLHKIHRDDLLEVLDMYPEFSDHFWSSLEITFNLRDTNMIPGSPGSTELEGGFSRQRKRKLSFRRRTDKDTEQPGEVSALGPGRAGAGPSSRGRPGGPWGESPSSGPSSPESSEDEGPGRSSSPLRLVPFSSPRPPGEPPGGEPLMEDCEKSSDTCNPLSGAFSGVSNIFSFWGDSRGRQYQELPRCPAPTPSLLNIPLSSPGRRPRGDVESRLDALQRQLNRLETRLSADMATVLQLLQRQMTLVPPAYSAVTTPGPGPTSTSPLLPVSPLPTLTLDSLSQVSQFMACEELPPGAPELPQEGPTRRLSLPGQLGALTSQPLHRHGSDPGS
row,Structure (SMILES),"hERG current change (%, negative = inhibition) at 1uM"
1,CSc1cccc(NC(=O)C(=O)NCc2ccccc2)c1,0.554%
2,O=C(CNCc1ccc(Cl)cc1)NCc1ccco1.O=C(O)C(=O)O,3.08%
3,COc1ccc(NC(=O)c2cccs2)cc1OC,8.75%
4,Clc1ccc(Sc2oc(/C=N/n3cnnc3)cc2Br)cc1,4.18%
5,COc1ccc(OCC(=O)Nc2nc3ccccc3[nH]2)cc1,3.55%
6,CC(=Nc1ccc2c(c1)CCC2)c1c(O)n(C2CCCCC2)c(=O)[nH]c1=O,8.82%
7,COc1ccc(CNC(=O)c2ccc(N3CCC4(CC3)CC(c3ccc(Cl)cc3)=NO4)c(NC(=O)c3ccccc3)c2)cc1,-1.44%
8,O=C1NC(=O)N(CCc2ccc(F)cc2)C(=O)/C1=C/C=C/c1ccccc1,8.13%
9,N/C(=N\O)c1ccc([N+](=O)[O-])s1,11.4%
10,O=C(CSc1ncn[nH]1)Nc1ccccc1Sc1ccc(Cl)cc1,-7.69%
11,O=c1c2ccc([N+](=O)[O-])cc2ncn1CCOc1ccccc1,4.81%
12,CC1(C)CC(=O)C2=C(C1)OC(N)=C(C#N)C2c1ccccc1 (stereo not drawn),-6.74%
13,CC1Cc2ccccc2N1S(=O)(=O)c1cccc(C(=O)NC2CC2)c1 (stereo not drawn),1.2%
14,O=[N+]([O-])c1cccc(CSc2cccc[n+]2[O-])c1,-3.74%
15,Cc1ccc(NC(=O)N/C=C/c2ccco2)cc1,1.58%
16,COc1ccc(S(=O)(=O)N(C)CC(=O)NCCC2=CCCCC2)cc1OC,-10.2%
17,COc1ccc(CCNC(=O)c2nc(-c3cccs3)no2)cc1OC,7.6%
18,O=C(Nc1ccccc1)N(C1=NCCCCS1)c1ccccc1,12.7%
19,CC(=O)N1CCN(c2ccc([N+](=O)[O-])cc2C=C2C(=O)NC(=O)NC2=O)CC1,-16.3%

row,Structure (SMILES),"hERG current change (%, negative = inhibition) at 1uM"
1,O=C(CSc1nnc(-c2ccc3c(c2)OCO3)n1-c1ccccc1)c1ccccc1,3.9%
2,O=C(NC1CCS(=O)(=O)C1)c1ccc(Br)o1 (stereo not drawn),11.2%
3,O=C(Nc1ccccn1)c1ccc(CN(c2ccccc2)S(=O)(=O)c2ccccc2)cc1,13%
4,COc1ccc(C(=O)COC(=O)COc2cccc3c2OC(C)(C)C3)c(OC)c1,13%
5,O=C1C=C(c2ccc(-c3ccccc3)cc2)C[C@@H](c2ccc(F)cc2)C1,6.09%
6,Cc1ccc(NCc2nnc(SCC(=O)N3CCCc4ccccc43)o2)c(C)c1,16.3%
7,CCOC(=O)C1C(c2cccc(Cl)c2Cl)NC(=O)NC1(O)C(F)(F)F (stereo not drawn),3.03%
8,CCC(=O)c1ccc(OCC(=O)OCC(=O)NC2CCCCCC2)cc1,16.8%
9,CCC(C)NC(=O)CCc1c(C)nc2c(c(C)nn2-c2ccccc2)c1C (stereo not drawn),14%
10,O=C1CSC(=S)N1/N=C/c1c(F)cccc1F,13.7%
11,Cc1cc(C)nc(NC(=O)CSc2nc3ccccc3o2)n1,-1.5%
12,CCOC(=O)c1ccccc1NC(=O)C1CC(=O)N(C2CCCCC2)C1 (stereo not drawn),-1.79%
13,CCCCOCC1CN(c2ccccc2)C(=O)CS1 (stereo not drawn),13.7%
14,CCn1c(COc2cccc(C)c2C)nnc1SCC(=O)Nc1cc(C)on1,24.6%
15,N#Cc1c(N2CCCCC2)nc(N)c2c(N)nc3c(c12)CC(c1ccccc1)O3 (stereo not drawn),16.2%
16,Cc1ccc(OC(=O)CCC(=O)Nc2ccc(S(=O)(=O)Nc3cc(C)on3)cc2)cc1,7.53%
17,Cc1cc(C)c(NC(=O)CS(=O)CC(=O)Nc2ccc(-n3cnnn3)c(C)c2)c(C)c1 (stereo not drawn),23.9%
18,COc1ccc(CCNC(=S)NC(=O)c2cc(OC)c(OC)c(OC)c2)cc1OC,11.1%
19,CCOc1ccc(N(CC(=O)NC(C)(C)C)S(=O)(=O)c2c(C)noc2C)cc1,6.81%

row,Structure (SMILES),"hERG current change (%, negative = inhibition) at 1uM"
1,O=C(O)c1cc(NS(=O)(=O)c2ccc(NC3CCCCC3)c([N+](=O)[O-])c2)cc(C(=O)O)c1,12.3%
2,CC1N(C)c2cc(NC(=O)c3ccco3)c(P(=O)(Nc3ccc([N+](=O)[O-])cc3)N3CCOCC3)cc2C1(C)C (stereo not drawn),-11.5%
3,Cc1cc(=O)[nH]c(N2CCN(C(=O)c3ccco3)CC2)n1,9.05%
4,CCCn1c(CN2CCN(C(=O)c3ccco3)CC2)nc2c1c(=O)n(C)c(=O)n2C,0.342%
5,CCN(CC)C(=O)C1CCN(Cc2ccc(Br)cc2)CC1.O=C(O)C(=O)O,-16.2%
6,Cc1ccc(C)c(NC(=O)CSc2nc(=O)n(CCN3CCOCC3)c3c2CCCC3)c1,4.3%
7,CC1=C(C(=O)OCC2CCCO2)C(c2ccc(C)cc2)C2=C(CCCC2=O)N1 (stereo not drawn),8.12%
8,Cc1ccc(Nc2nc3ccccc3o2)cc1F,15.4%
9,Cl.c1ccc(Nc2c3c(nc4ccccc24)CCC3)cc1,-33.1%
10,Cc1c(Cl)cccc1NC(=O)NN1CCN(C)CC1,-0.476%
11,OC(CN1CCOCC1)c1ccc(F)cc1 (stereo not drawn),14.8%
12,Cc1cc(C)cc(-n2cnc3cc(C(=O)O)ccc32)c1,10.1%
13,COc1ccccc1N1CCN(C(=O)c2cc(=O)c3cc(C)ccc3o2)CC1,-8.99%
14,c1cncc(C2CCCCN2Cc2ccc3c(c2)OCO3)c1 (stereo not drawn),10.9%
15,COc1ccc(NC(=O)C(=S)N2CCCC2)cc1,11.3%
16,CCCn1nnnc1NC(=O)c1cccs1,18.5%
17,O=S(=O)(Cc1ccc(Cl)cc1)c1ccccc1-c1nnc(-c2ccccc2)o1,13.4%
18,Oc1ccc(-c2nc3ccccc3s2)cc1,10.4%
19,O=C(NC1CCCC1)c1cccc(Cl)c1,9.48%

# — PMC4336329 (PLoS ONE, 2015)
